# B1: KRAS4A (natural protein)
# chain: not shown
# notes: KRAS isoform 4A, full length gene; Loaded with mant-GppNHp for fluorescence polarisation; A farnesylated KRAS4A from insect cells was used only in liposome flotation
# Biological target: T1, SIN1-RBD-PH ( (the printed accession is a …, UniProt Q9BPZ7 266-522))
# T1 construct: SIN1 (MAPKAP1) RBD-PH tandem, aa 266-522; numbers count on isoform 1 (full length); also called SIN1-RBD-PH tandem; MBP-SIN1-RBD-PH
# Test: fluorescence polarisation; increasing amounts of SIN1 protein titrated to 1 µM mGppNHp-bound GTPase; 21°C; 30 mM Tris/HCl pH 7.5, 150 mM NaCl, 5 mM MgCl2, 3 mM dithiothreitol; quadratic ligand binding equation
# Conditions: both partners purified
binder,measurement,value
B1,Kd,410 µM

# — publication PMC9583166 (Frontiers in Cell and Developmental Biology, 2022)
